About 64,000 (15%) of roughly 420,000 compounds were called active. This list was built around the results that the source calls inconclusive (neither active nor inactive); the mix of calls is not that of the screen. Calls come from the whole dose curve; as a rule, active = well fitted inhibition curve with a large enough effect; inconclusive = small, poorly fitted or top-dose-only effect; inactive = flat fitted curve, though single readings scatter. Potencies of inconclusive entries are left out as doubtful fits.
Assay: qHTS for Inhibitors of human tyrosyl-DNA phosphodiesterase 1 (TDP1): qHTS in cells in absence of CPT; note: nearly all actives have a fitted effect of over 55% in size
Conditions: DT40 Tdp1-/- hTDP1 cells, no CPT, ATP luminescence, 48 h; activity change, negative = growth inhibition: at 46.2 µM (top of the series) unless noted
Method in brief: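 Luminescent ATP content (CellTiter-Glo) served as the growth readout. Knockout chicken DT40 cells expressing human TDP1 were exposed to compounds without camptothecin for a minimum 48 hr at 37 °C.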
% is set by controls: 0 for no effect and ±100 for the full control effect; potency is the fitted concentration of half-maximal effect; tags give direction and shape of the fitted curve.

Compound | Potency | activity change, negative = growth inhibition
N#Cc1c(N2CCN(C(=O)c3ccco3)CC2)nc(-c2ccccc2)c2c1CCCC2 | inconclusive [inhibitor, single point] | –
CCCN(CCC)CCNS(=O)(=O)c1ccc2c(c1)CCN2C(=O)C1CCC1 | inconclusive [inhibitor, single point] | –
CNC(=O)c1ccccc1NC(=O)c1ccc(C)c(S(=O)(=O)N2CCCCC2)c1 | inconclusive [inhibitor, single point] | –
O=C(Cn1c(=O)c(CNc2ccccc2)cc2cc3c(cc21)OCCO3)Nc1ccccc1Cl | inconclusive [inhibitor, single point] | –
CCOC(=O)c1c(NC(=O)COc2ccccc2OCC)sc2c1CC(C)(C)NC2(C)C | active: 5.8 µM | –
Cc1cc(C)c2c(CN3CCN(c4ccccc4)CC3)cc(=O)oc2c1 | inconclusive [inhibitor, single point] | –
COc1ccc(C(=O)NCc2nnc(SCC(=O)NCc3ccco3)o2)cc1 | – | inactive: 0.642%
O=C(COC(=O)c1ccco1)c1ccc(Cl)cc1 | active: 1.3 µM | –
O=C(NN1CCOCC1)c1ccc(Cl)c(Cl)c1 | – | inactive: 17.6%
Cc1cc(C)cc(NC(=O)N2CCN(Cc3ccc4c(c3)OCO4)CC2)c1 | – | inconclusive: -33.1% [inhibitor]
CC(C)(C)c1nn(-c2ccccc2)c2[nH]c(=O)c(CNCc3ccco3)cc12 | active: 23.1 µM | –
c1ccc(COc2ncnc3c2ncn3CCCNCc2ccc3c(c2)OCO3)cc1 | inconclusive [inhibitor, single point] | –
CCOC(=O)C1=CCN(S(=O)(=O)c2ccccc2C)C1c1cccc(F)c1 (stereo not given) | active: 16.4 µM | –
COc1ccc2[nH]cc(CCNc3ncncc3-c3ccccc3C)c2c1 | inconclusive [inhibitor, single point] | –
Cc1ccc(-c2cccc(NC(=O)C3C4C=CC(C4)C3C(=O)O)c2)o1 (stereo not given) | inconclusive [inhibitor, single point] | –
CC(C)(C)OC(=O)N1CCC(c2c(C(=O)NCCN3CCOCC3)cnn2-c2cccc(Cl)c2)CC1 | inconclusive [inhibitor, single point] | –
O=C(Nc1cccc(Cl)c1)OCCOC(=O)Nc1cccc(Cl)c1 | active: 20.6 µM | –
CC(C)(C)C(=O)Nc1ccc(-c2nnc3n2CCCCC3)cc1 | – | inactive: 3.85%
CC(OC(=O)CC1CCCCC1)C(=O)Nc1cccc(C#N)c1 (stereo not given) | inconclusive [inhibitor, single point] | –
COc1ccc(CC(C)CC(=O)NCCc2ccc(OC)c(OC)c2)cc1 (stereo not given) | inconclusive [inhibitor, single point] | –

From PubChem BioAssay AID686978 (National Center for Advancing Translational Sciences (NCATS), 2013)
